# Experimental data published in article PMC4336329 (PLoS ONE, 2015).
# The whole screen tested about 310,000 compounds, of which about 14,000 (4.5%) showed an effect of 50% or more. Effects have a minus sign here. The list shows a part of the results.
# Molecular target: human ether-à-go-go-related gene (hERG) potassium channel (human, UniProt Q12809)
# Assay: primary screen, population patch clamp on CHO cells stably expressing hERG
# 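Note: peak tail current of the secondary pulse compared with the same well before compound.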
# Sequence of human ether-à-go-go-related gene (hERG) potassium channel (Q12809 whole entry, looked up): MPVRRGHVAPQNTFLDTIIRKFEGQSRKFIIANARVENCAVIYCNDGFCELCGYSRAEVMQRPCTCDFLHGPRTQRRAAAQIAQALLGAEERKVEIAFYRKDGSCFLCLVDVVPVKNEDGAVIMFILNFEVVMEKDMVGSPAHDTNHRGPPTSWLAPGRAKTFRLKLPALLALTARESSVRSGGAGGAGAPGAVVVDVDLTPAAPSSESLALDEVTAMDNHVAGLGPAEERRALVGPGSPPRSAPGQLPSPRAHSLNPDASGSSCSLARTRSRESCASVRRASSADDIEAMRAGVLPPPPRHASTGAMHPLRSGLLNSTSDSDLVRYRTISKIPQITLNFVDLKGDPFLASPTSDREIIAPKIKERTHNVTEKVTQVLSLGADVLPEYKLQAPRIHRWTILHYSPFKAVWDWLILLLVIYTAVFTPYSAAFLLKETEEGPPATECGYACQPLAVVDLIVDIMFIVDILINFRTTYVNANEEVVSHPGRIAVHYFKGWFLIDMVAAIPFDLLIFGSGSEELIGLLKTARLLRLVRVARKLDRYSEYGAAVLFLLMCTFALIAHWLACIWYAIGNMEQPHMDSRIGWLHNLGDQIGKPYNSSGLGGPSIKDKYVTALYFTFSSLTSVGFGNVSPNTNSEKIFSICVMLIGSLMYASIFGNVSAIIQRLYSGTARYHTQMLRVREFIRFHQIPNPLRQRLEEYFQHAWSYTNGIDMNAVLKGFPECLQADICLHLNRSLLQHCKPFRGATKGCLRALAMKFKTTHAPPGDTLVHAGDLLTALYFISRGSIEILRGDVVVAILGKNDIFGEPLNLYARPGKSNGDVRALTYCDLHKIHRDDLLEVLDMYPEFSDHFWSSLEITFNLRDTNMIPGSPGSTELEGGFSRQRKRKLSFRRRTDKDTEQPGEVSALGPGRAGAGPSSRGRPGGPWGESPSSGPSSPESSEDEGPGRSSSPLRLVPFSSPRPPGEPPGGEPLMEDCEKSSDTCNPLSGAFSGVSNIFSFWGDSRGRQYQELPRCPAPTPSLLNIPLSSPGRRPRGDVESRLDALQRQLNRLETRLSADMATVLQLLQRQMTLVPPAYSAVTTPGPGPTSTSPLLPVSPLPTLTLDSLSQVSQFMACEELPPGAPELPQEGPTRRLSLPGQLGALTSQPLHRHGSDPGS
row,Structure (SMILES),"hERG current change (%, negative = inhibition) at 10uM"
1,O=C(NCc1ccccc1)C(=O)Nc1cccc(C(=O)O)c1,4.16%
2,COc1nc(NC(C)(C)C)nc(Oc2ccc(=O)n(C)n2)n1,16.8%
3,Cc1cccc(Cn2c(Cc3ccccc3)nc3ccccc32)c1,-24.6%
4,COc1ccc(CN2CCn3ncc(C(=O)Nc4cccc(C)c4)c3C2=O)cc1,6.5%
5,CCOc1ccc(C(=O)CCC(=O)NC(CC(C)C)C(=O)OC)cc1 (stereo not shown),-2.17%
6,CCc1ccccc1-n1ncc(C(=O)Nc2ccccc2OC)c1C,3.49%
7,O=C(CSc1nc2ccsc2c(=O)n1CC1CCC(C(=O)O)CC1)c1ccc(F)cc1 (stereo not shown),15.5%
8,Cc1ccc(-c2cc(C(=O)N3CCCC3)no2)cc1,0.529%
9,CC(=O)C1=C(C)Nc2ncnn2C1c1ccc(C)cc1 (stereo not shown),10.5%
10,O=C(CSc1nc2ccccc2s1)NNC(=S)Nc1ccc(Cl)cc1,6.79%
11,CN=C1S/C(=C\c2cccn2-c2cccc(Br)c2)C(=O)N1C,5.78%
12,Cc1cccc(N(CC(=O)NC2CCCCC2)C(=O)CCCC(=O)Nc2ccccn2)c1,2.93%
13,CC1CCCC(C)N1C(=O)C1CCCCC1 (stereo not shown),5.23%
14,CCN(CC)S(=O)(=O)c1ccc2c(c1)oc(=O)n2CC(=O)N(C)C1CCCCC1,-11.9%
15,O=C(CSc1nccn1Cc1ccco1)Nc1cccc(F)c1,-1.57%
16,C[C@@H](NC(=O)C1(c2ccccc2)CCN(C(=O)OC(C)(C)C)CC1)C(=O)N[C@@H](Cc1ccccc1)C(=O)O,-2.07%
17,CNC(=O)Cn1ncc2c3ccccc3n(C)c2c1=O,12.4%
18,c1ccc(N2CCN(Cc3cnc(N4CCOCC4)s3)CC2)cc1,29.4%
19,COc1cc(C(=O)Nc2nnc(C)s2)cc(OC)c1OC,-0.457%
20,COc1ccc(/C=C2\C(=O)NC(=O)N(CCC3=CCCCC3)C2=O)c(OC)c1,24.6%

row,Structure (SMILES),"hERG current change (%, negative = inhibition) at 10uM"
1,O=C(Nc1cc(C(=O)N2CCOCC2)ccc1N1CCCC1)c1cccs1,-75.9%
2,CCN1CCN(CCNC(=O)Nc2ccc([N+](=O)[O-])cc2)CC1,-12.2%
3,c1ccc(CSc2ccc(-c3cccs3)nn2)cc1,15.5%
4,O=C(NCc1nnc(SCC(=O)N2CCCCCC2)o1)c1ccccc1F,6.82%
5,CCOC(=O)c1[nH]c2ccc(OC)cc2c1NC(=O)OC,7.46%
6,O=C(COC(=O)c1ccc(S(=O)(=O)NCc2ccco2)cc1)NC1CCCCC1,-1.72%
7,COc1ccc(NS(=O)(=O)c2cccc(C(=O)NNC(=O)c3cccn3C)c2)cc1,8.16%
8,Cc1ccc(-n2c(N)cc(=O)nc2SCC(=O)N2CCN(c3ccccc3)CC2)cc1,-0.877%
9,CCCN(CCC)CCNC(=O)C1CCN(S(=O)(=O)c2cccc3nsnc23)CC1,-13.4%
10,O=C(COC(=O)CN1C(=O)c2ccccc2C1=O)NC1CCCCC1,4.62%
11,Cc1nnsc1SCCNC(=O)Nc1ccc(Cl)cc1,-1.58%
12,CCOCCCNC(=O)Cn1cc2c(n1)CCCC2,4.46%
13,COc1cccc(CN2CCN(CC#Cc3ccccc3)CC2CCO)c1 (stereo not shown),-30.6%
14,Cc1ccc(Oc2nnc(-c3ccccc3)cc2C#N)cc1,-11.8%
15,CC(C)(C)c1nc(SCC(=O)Nc2ccc3c(c2)OCCO3)c2ccccc2n1,-13.7%
16,C/C(O)=C(\C#N)c1nnc2n1CCCCC2,3.51%
17,COc1ccc(CN2CCNC(=O)C2CC(=O)NCCc2nc(C)c(C)s2)cc1C (stereo not shown),1.75%
18,O=C(c1ccc(NC(=S)Nc2ccc(F)cc2F)cc1)N1CCOCC1,6.43%
19,O=C(CSc1n[nH]c(=O)n1Cc1ccco1)c1ccc(F)cc1,1.67%
20,CC1Sc2ccc(S(=O)(=O)N3CCN(c4cccc(Cl)c4)CC3)cc2NC1=O (stereo not shown),9.32%

row,Structure (SMILES),"hERG current change (%, negative = inhibition) at 10uM"
1,Cc1ccc(C)c(OCC(O)CN2CCc3ccccc3C2)c1C.Cl (stereo not shown),-65.3%
2,c1coc(CNc2c3c(nc4ncnn24)CCC3)c1,-29.6%
3,Cc1ccc(OCC(=O)Nc2ccc(C(N)=O)cc2)cc1,16.5%
4,CC(=O)N/N=C(\C)c1cccc(C(F)(F)F)c1,9.13%
5,COc1ccc(OCCOC(=O)Nc2ccccc2)cc1,-2.72%
6,O=C(CN1CCCCC1)Nc1ccc(N2CCCCCC2)cc1.O=C(O)C(=O)O,-88.7%
7,O=C(O)C[C@H]1c2cc(F)ccc2S(=O)(=O)N1Cc1ccccc1,1.81%
8,O=c1[nH]c(C2CC2)nc2sc3c(c12)CCCC3,15.8%
9,O=C(N/N=C/C=C/c1cccc([N+](=O)[O-])c1)c1ccncc1,-24%
10,Cc1cc(C)n(CC(=O)NNC(=O)CCCOc2ccc(Cl)cc2C)n1,8.14%
11,N#C/C(=C\c1c(N2CCC(C(N)=O)CC2)nc2ccccn2c1=O)S(=O)(=O)c1ccccc1,-4.45%
12,CCN(CC)c1cc(C)c2cc(NC(=O)c3cccs3)ccc2n1,-72.2%
13,COc1ccc(OC)c(S(=O)(=O)N2CCCC(C(=O)N3CCC(C(N)=O)CC3)C2)c1 (stereo not shown),-1.95%
14,NC(=O)N/N=C\c1cccs1,7.36%
15,COc1ccc(-n2nc(C(=O)NCC(=O)N3CCN(Cc4ccccc4)CC3)c3ccccc3c2=O)cc1OC,13.9%
16,CS(=O)(=O)N1CCC(C(=O)Nc2ccccc2F)CC1,10.3%
17,CC(C(=O)NC(=O)NC1CCCCC1)N1CCN(C(c2ccccc2)c2ccccc2)CC1 (stereo not shown),-2.11%
18,NNC(=O)c1ccccc1OCc1ccccc1,-7.5%
